The full ranking holds about 33,000 sequences; the median of “E-score (-0.5 to 0.5)” is about -0.016, and the highest 2% start at about 0.32. The list shows a part of the results.
Target: T1, Stp1 (UniProt B3LFK1)
T1 sequence: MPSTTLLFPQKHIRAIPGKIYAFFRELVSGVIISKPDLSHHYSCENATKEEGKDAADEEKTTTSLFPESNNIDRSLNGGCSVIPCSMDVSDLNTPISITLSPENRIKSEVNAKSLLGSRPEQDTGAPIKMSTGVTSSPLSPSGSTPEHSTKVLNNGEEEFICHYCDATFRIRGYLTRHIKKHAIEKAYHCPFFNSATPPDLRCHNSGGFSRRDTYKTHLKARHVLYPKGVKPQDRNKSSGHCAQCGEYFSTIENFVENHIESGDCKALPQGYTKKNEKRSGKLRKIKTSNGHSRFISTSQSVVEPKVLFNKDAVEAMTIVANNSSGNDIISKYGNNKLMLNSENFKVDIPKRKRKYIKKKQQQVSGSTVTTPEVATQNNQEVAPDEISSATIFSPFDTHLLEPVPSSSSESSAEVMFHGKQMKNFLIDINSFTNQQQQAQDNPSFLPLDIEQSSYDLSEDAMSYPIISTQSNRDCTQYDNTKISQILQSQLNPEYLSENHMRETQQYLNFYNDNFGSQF
Assay: PBM E-score (8-mer binding enrichment) (E-score (-0.5 to 0.5)); higher = stronger / more preferred TF binding; most listed sequences are background and not binding sites
Details: protein concentration: 200 nM; construct: GST-full length
Procedure: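 Universal 'all 10-mer' protein binding microarrays (Agilent AMADID 015681) probed with GST-tagged S. cerevisiae TFs (full-length or DBD) made by in vitro transcription/translation (PURExpress), about 100-200 nM. Bound TF was detected with fluorescent anti-GST. Each ungapped 8-mer (which stands for itself and its reverse complement) is scored by the PBM enrichment score (E-score), a modified Wilcoxon-Mann-Whitney statistic from -0.5 to +0.5, computed with the Universal PBM Analysis Suite. Scale: above 0.35 generally sequence-specific binding.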

| Sequence | PBM E-score |
| --- | --- |
| CGCGTTTA | -0.0505 |
| ATGTACGG | 0.24 |
| CTTGTGGA | 0.016 |
| CATGGGAA | -0.0417 |
| AGGTAGCA | -0.208 |
| CGAAGCCG | 0.251 |
| ACATGCTA | -0.134 |
| GGTAATAA | 0.136 |
| AGAGTCAA | -0.306 |
| AGCAATAT | 0.11 |
| CTAATTAC | -0.0115 |
| CGCACGCG | 0.113 |
| GAATGGGC | -0.113 |
| ACTAAAGG | -0.0249 |
| ATTCACAA | 0.11 |
| CCCCTTCC | -0.224 |
| ATCCGATG | 0.0876 |
| ATCGGTGG | -0.123 |
| GGGGGCAC | -0.266 |
| GATCTGGC | 0.105 |
| CAGAGCAC | -0.00762 |
| CGAAGGCC | -0.129 |
| AGAGCGGG | -0.113 |
| AACTGGCT | -0.188 |
| ACCCATCA | -0.127 |

| Sequence | PBM E-score |
| --- | --- |
| AGGGCCCA | -0.232 |
| AGTGAACT | -0.059 |
| GTCCCCTA | -0.281 |
| CATACGAA | 0.105 |
| CTTCCCGC | 0.0561 |
| GAGTTGAA | -0.175 |
| AATAAATC | 0.147 |
| CCTAATCC | -0.275 |
| AAAAGGCG | 0.34 |
| GATAAGGC | 0.216 |
| CTCCGCAG | -0.00431 |
| CTTCATTC | -0.0223 |
| ATATCTGG | -0.184 |
| ACTACGAC | -0.00693 |
| TAAATCCA | -0.00287 |
| CGTAGAAG | 0.178 |
| GGTTTGAC | 0.0251 |
| ATACGTGG | 0.142 |
| CTGAGCTC | -0.0853 |
| CCCTAAAG | -0.0667 |
| CGGGGAGA | -0.31 |
| CACCCTAC | -0.106 |
| CTGGCGCC | 0.314 |
| CGTGATCC | -0.155 |
| CTGCCTTA | -0.0771 |

| Sequence | PBM E-score |
| --- | --- |
| ATCGGATA | 0.202 |
| CACATTGC | 0.126 |
| CTCGCTCA | 0.0602 |
| GCATATAA | 0.221 |
| GAGGATGC | -0.124 |
| GATGCCCA | 0.158 |
| CAAAAGAC | 0.0577 |
| AGAATCGG | 0.1 |
| CAAGGCCC | 0.00011 |
| ACTATATG | 0.135 |
| TTAGTGAA | -0.0118 |
| ATGTAGCA | -0.00081 |
| TAAAGTCA | -0.0212 |
| TACCAGGA | 0.00153 |
| AACCTCAG | -0.0867 |
| AAGCAAGG | -0.0277 |
| CTTAGAGA | -0.0858 |
| CTAGAGAA | 0.23 |
| AGGGGAAT | 0.0161 |
| GGAAGCAC | 0.0646 |
| CATATCCC | 0.0688 |
| CGACTCAC | -0.254 |
| CGTACCTA | -0.0292 |
| CGCAAAAG | 0.0708 |
| TATTGCAA | 0.229 |

| Sequence | PBM E-score |
| --- | --- |
| GGGGAGAC | -0.346 |
| AACGTATT | 0.195 |
| AGCAGTAT | 0.0883 |
| CAACATGA | 0.118 |
| CAGCTAAA | -0.0461 |
| AAACCAAT | 0.0131 |
| GCGTTAAA | 0.206 |
| GGAAACCC | -0.187 |
| GCCTTTCC | 0.381 |
| GCATATCA | 0.135 |
| CCTTTCCG | 0.0145 |
| AAAATGCA | -0.0731 |
| AACTCAGA | 0.183 |
| CACAGTGC | 0.114 |
| ATCCACTA | -0.0231 |
| CTCCCGAA | -0.282 |
| CTTCACGC | 0.225 |
| AGACGCCC | 0.0951 |
| AAATTTTA | 0.116 |
| GCGCCACA | 0.334 |
| CCAAAATC | 0.134 |
| CCGATTGA | -0.0804 |
| CCATGGCG | 0.236 |
| AACGTGAT | -0.0428 |
| CCACTGGA | -0.241 |

| Sequence | PBM E-score |
| --- | --- |
| ATCCTGAG | 0.0111 |
| CTTAAAGC | -0.0457 |
| CCTATCCC | -0.0936 |
| AATTACAG | 0.0891 |
| ATGTGCCA | 0.137 |
| AGTCCTAT | -0.171 |
| CACACTGC | 0.0471 |
| CAGTTCCA | -0.117 |
| CGAAGCAA | -0.0777 |
| ACCCAGTC | -0.33 |
| CCTCAACA | 0.168 |
| TCCCAACA | -0.0125 |
| CGCTCAAG | -0.0541 |
| AACCGTAG | -0.0182 |
| ATTTGCTA | 0.125 |
| AAAATTTT | 0.152 |
| GTAGAAAC | 0.0908 |
| AAGGTGAA | -0.00311 |
| AGTCAAGA | -0.0455 |
| AAAATCAC | 0.0634 |
| CCCGCGAG | -0.117 |
| GGACTTAA | -0.216 |
| CGAACCAA | -0.0133 |
| AAAGTTCG | 0.192 |
| AGCCACTC | 0.0834 |

| Sequence | PBM E-score |
| --- | --- |
| GGCATAGA | 0.134 |
| GATGTTAC | 0.0244 |
| CAAGGCCG | 0.103 |
| AAGTAGTC | 0.00928 |
| TCAGAGGA | -0.284 |
| CGCTGCAG | -0.109 |
| ATCCCAGC | -0.171 |
| CTTACCTC | -0.245 |
| ACGCTGCG | -0.0618 |
| CGAAAAAA | 0.147 |
| CATGTTCG | -0.0735 |
| TAACGTGA | 0.06 |
| CCGAAAGC | -0.274 |
| GGGATGGA | -0.114 |
| GCAGACTA | 0.0053 |
| AAGTGGCT | 0.132 |
| CCGTTTCC | 0.121 |
| CGTCCCTC | -0.131 |
| AATGGTCG | -0.0272 |
| AAGGGGGT | -0.301 |
| CAGTCCTC | -0.0753 |
| ATCCCGTC | -0.206 |
| ACGGTACA | 0.123 |
| AACGATCC | -0.211 |
| AGTAAATG | 0.0843 |

| Sequence | PBM E-score |
| --- | --- |
| ACTTTGAG | 0.0437 |
| ATTGCATG | 0.145 |
| GCTTTGTA | 0.135 |
| CCCTGCCC | -0.215 |
| CAAGCCGC | 0.299 |
| CACTGATG | -0.0393 |
| GACGGCCA | -0.0395 |
| AAACGTGT | -0.0871 |
| ATAAAGAG | -0.0649 |
| CATGACGA | -0.0371 |
| CAAAGGAG | -0.0545 |
| TCATGAGA | 0.0946 |
| CCAATACA | -0.116 |
| GATTGTAC | -0.0306 |
| GAAGTTAC | 0.0897 |
| AGTAGCAG | -0.0197 |
| ATCGCGAG | 0.0313 |
| CAAGCCCG | -0.0901 |
| ACTTATAA | 0.148 |
| TCTGAGAA | -0.0138 |
| ATAAGTCA | 0.0453 |
| AGATGGCG | 0.165 |
